Laboratory results reported in the supplement of paper PMC3334620.
The full ranking holds about 33,000 sequences; the median of “E-score (-0.5 to 0.5)” is about -0.054, and the highest 2% start at about 0.39. The list shows a part of the results.

Target: Ylr278c (UniProt Q05854)
Test: PBM E-score (8-mer binding enrichment) (E-score (-0.5 to 0.5)); higher = stronger / more preferred TF binding; most listed sequences are background and not binding sites
Details: protein concentration: 200 nM; construct: GST-DNA-binding domain
Procedure, shortened: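 Universal all-10-mer Agilent arrays, double-stranded by primer extension on fresh or once-stripped slides, were probed with about 100-200 nM GST-tagged yeast transcription factors made by PURExpress. Fluorescent anti-GST detected bound protein, and masliner normalised the scans. E-scores from the Universal PBM Analysis Suite were given to each ungapped eight-base word pooled with its reverse complement.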

| Sequence | PBM E-score |
| --- | --- |
| ACACGTAT | -0.186 |
| CGTCCCGA | 0.106 |
| CGAAATTC | 0.25 |
| AAGTACCT | -0.166 |
| ACGATCAC | -0.0976 |
| ATGCTGGC | -0.147 |
| AATAGCCC | -0.149 |
| ATTGGTTA | -0.0204 |
| CGGAAATA | 0.451 |
| AACTGCTT | -0.0718 |
| ACGCCGCG | 0.29 |
| TACGCGGA | 0.309 |
| AGAATGTA | -0.0845 |
| CCCGAACA | 0.195 |
| GGTTGCAA | -0.131 |
| ACTGAACA | -0.135 |
| GAGGATAA | -0.0908 |
| TACACATA | -0.114 |
| AGGTAGCG | -0.0627 |
| AGGGCTGA | -0.181 |
| AGCAAGAG | -0.286 |
| GCATATGC | 0.0168 |
| ACGCCGGC | 0.421 |
| AAGTAAAT | -0.00262 |
| CTGCTTTC | -0.0475 |

| Sequence | PBM E-score |
| --- | --- |
| ATGGACAC | -0.084 |
| AGGGCCGA | 0.236 |
| CGGTAGCA | -0.0988 |
| ACGCGGCA | 0.101 |
| CAGGATGC | -0.0309 |
| AAGCATGC | -0.372 |
| AGCTGTGC | -0.114 |
| GAAAAGAA | -0.0411 |
| ATTTTCCC | 0.063 |
| GGCACACC | -0.12 |
| CGACTAAG | -0.0283 |
| GTATTTAA | -0.116 |
| TCTACGAA | -0.28 |
| TCTGCAGA | -0.0892 |
| ATTTGATA | -0.0839 |
| AGCATACT | -0.214 |
| AGATCTAG | -0.266 |
| CCATACTA | -0.138 |
| CTCGTACC | -0.0986 |
| GCCTCGAC | -0.211 |
| ACGTAAGG | -0.264 |
| ATAGATAT | -0.148 |
| ACAACCTG | -0.21 |
| ATACACCA | -0.143 |
| AGTGGGAG | -0.221 |

| Sequence | PBM E-score |
| --- | --- |
| AGTGTCGC | 0.0239 |
| CTATGGGA | -0.069 |
| AAGTGCCC | -0.0455 |
| ACCTTTCA | -0.0627 |
| GACGATCC | 0.142 |
| ACGCGGCG | 0.322 |
| GTCCTAGA | -0.112 |
| AAACCATG | -3e-05 |
| TGACGTCA | 0.0129 |
| AGAACAGC | -0.0516 |
| ATCATAGC | -0.0366 |
| GAACTACC | 0.0269 |
| GAACACGC | 0.152 |
| CTGCTGAC | -0.19 |
| CTAATCTA | -0.00091 |
| GTCAGATA | -0.151 |
| ACGCTCAC | 0.00599 |
| CTGATTGC | -0.0289 |
| GATACAGC | 0.0707 |
| TCTTAAGA | -0.221 |
| AAATCGGG | 0.276 |
| ATATCTAA | -0.121 |
| CTCGGAGA | 0.449 |
| CTCCAATC | -0.0635 |
| GCCCAACC | -0.0501 |

| Sequence | PBM E-score |
| --- | --- |
| CAGACACG | -0.0553 |
| ATATTGTC | 0.0929 |
| AAGAGCCT | -0.317 |
| ATGCTAAG | -0.108 |
| AACGTGTG | -0.353 |
| ACGCACTC | -0.00638 |
| AGTAGCAT | 0.024 |
| AAACTTGA | -0.171 |
| AAGACTCA | -0.375 |
| AGTTGCAA | 0.0276 |
| GCCCCCCA | -0.273 |
| ACTTTTCT | -0.13 |
| ATGCTGCA | -0.178 |
| ACTGCCGA | 0.189 |
| CACACAAC | -0.0809 |
| GCTACAGC | -0.144 |
| GATTGGCC | 0.0281 |
| AAACAGTT | 0.0452 |
| CAATCACG | 0.105 |
| TGTAAGAA | -0.00864 |
| TAACTAGA | 0.038 |
| AATAATGG | -0.0695 |
| CGGTTATC | 0.262 |
| GGTAGATA | 0.0517 |
| ATAAACAG | -0.0729 |

| Sequence | PBM E-score |
| --- | --- |
| AACCCGCT | 0.182 |
| ACTGAATA | -0.127 |
| AGAGACCA | -0.294 |
| AACGACTA | -0.117 |
| TCCGGCAA | 0.431 |
| CGAGGTAA | 0.0271 |
| CTTAGGTA | -0.0818 |
| AAATACTT | 0.0145 |
| GGCGTAAC | -0.0749 |
| ATGATACA | -0.101 |
| ACATACGC | 0.0311 |
| TCTCGTAA | 0.0132 |
| GTATTCAC | 0.125 |
| CCCAGTCG | 0.0852 |
| AAACGTAC | -0.115 |
| ATGCTACG | -0.0841 |
| AATTTCTG | -0.153 |
| GAGCATAA | 0.15 |
| AAATTTAA | 0.0331 |
| ATACGTAG | -0.182 |
| GTTCTGCA | -0.0984 |
| CCGTGCTA | 0.0858 |
| ACTCAGCC | -0.145 |
| CCATAGGC | -0.0663 |
| ACGAGCTG | -0.16 |

| Sequence | PBM E-score |
| --- | --- |
| CAAGCGCA | 0.0985 |
| CTTCTGAC | -0.258 |
| ACATGAAC | -0.172 |
| ATCACAGG | -0.301 |
| TGCTCCAA | -0.0383 |
| CCACCAAC | 0.0769 |
| TAAAGACA | -0.186 |
| CGCCTCTC | -0.206 |
| GAATGCTC | -0.0816 |
| CAGGCTGA | -0.19 |
| CTCATAAC | 0.0253 |
| ATGACAAT | -0.184 |
| ACCGGCGT | 0.3 |
| TCGCTACA | -0.308 |
| ATGAATGC | 0.0522 |
| ACTGCACT | -0.0612 |
| CGCAAAAC | 0.134 |
| CTTGAGAC | -0.0789 |
| CATGACCG | 0.0297 |
| CACGAATG | -0.176 |
| ACGCCTTC | -0.0421 |
| AGACCTCT | -0.198 |
| ATAGGTAA | -0.178 |
| AGTTAATA | 0.0494 |
| AGACAGCT | -0.155 |

| Sequence | PBM E-score |
| --- | --- |
| CTCACCGC | -0.0877 |
| GCACCCGC | 0.234 |
| AGGGTGAT | -0.198 |
| CGAATCGC | 0.0481 |
| ATCCTGCG | -0.114 |
| TCCTTCCA | -0.287 |
| CATTATTC | 0.0127 |
| GGGAAGAA | -0.2 |
| ACACAAGG | -0.177 |
| ATAGGTCG | -0.0605 |
| ATGCCCAT | -0.34 |
| ACTGCACA | -0.186 |
| CATCGTCG | 0.00894 |
| CGAAGACC | 0.152 |
| CTCTTAAG | -0.161 |
| AGTCGCCA | -0.199 |
| ATCCCCGG | 0.425 |
| CTTTGAGC | -0.21 |
| ATCGGACG | 0.357 |
| GGTGAAGA | -0.0845 |
| ACTAGCGG | 0.174 |
| CAAGGAAA | 0.00964 |
| TAGAGTCA | -0.243 |
| ATGCTCCC | -0.0848 |
| GTTTTCCA | 0.00849 |

| Sequence | PBM E-score |
| --- | --- |
| TATGTTAA | -0.174 |
| GGCCCTGA | -0.0923 |
| CGCGACTA | 0.142 |
| AAAAGACT | -0.172 |
| AATGTCAT | 0.00877 |
| GACGAGAC | -0.0931 |
| CGCTCTAA | -0.0974 |
| ATACAGCA | -0.0117 |
| TACTTGGA | -0.175 |
| GTGACGGA | 0.314 |
| CAGCCGGG | 0.166 |
| CGCAGGAC | 0.0789 |
| CATATATG | -0.306 |
| TAGGGCCA | -0.36 |
| AAAAGTTG | -0.0843 |
| TAGGCTGA | -0.216 |
| CGCCAATC | -0.0557 |
| ACCGTCAG | -0.0957 |
| CAAACTCA | -0.0703 |
| CCCACTCG | -0.00429 |
| ATTAGTTC | 0.0141 |
| ACCTTTCC | 0.151 |
| CGAGGGGC | -0.089 |
| TACGGTGA | -0.00183 |
| GCCAGGGC | -0.0673 |

| Sequence | PBM E-score |
| --- | --- |
| CTCTGCCC | -0.131 |
| AAGGACTA | -0.244 |
| AGCGGGCC | 0.113 |
| CGCCCTCC | 0.266 |
| CCGAACAA | 0.309 |
| AAGGTTGA | -0.119 |
| CTCAGCAG | -0.262 |
| CGTTCACA | -0.0721 |
| CACCAGGA | -0.0445 |
| AATCTAGT | 0.0968 |
| AGGGGGAA | -0.161 |
| ACTTCTTC | -0.0177 |
| TCAGAAAA | -0.277 |
| CCTGCTGA | -0.057 |
| CCCCTCTA | -0.309 |
| AAGGTCAC | -0.209 |
| AACTACAG | -0.0238 |
| GAGCAAGC | 0.0425 |
| CGTATTAC | 0.118 |
